# Reference: the supplement of paper PMC8728848
# The other results are listed elsewhere or left out.
# Experiments:
# Experiment in all cases: glycan array binding signal (z-score within array); higher = stronger binding
# Conditions in all cases: glycan notation: IUPAC condensed, linker removed
# Fuc(a1-2)Gal = target: Fuc(a1-2)Gal
# Method in brief: (§1)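 The binding signal is a Z-score computed within each array and averaged over linkers. Arrays of the same protein sequence at different concentrations or buffers were also averaged together. Data originate from 3228 arrays in the Consortium for Functional Glycomics database, kept only where the protein sequence was available.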
# Fuc(a1-2)Gal(b1-3)GalNAc = target: Fuc(a1-2)Gal(b1-3)GalNAc
# Method in brief: as §1
# [1] = target: Fuc(a1-2)Gal(b1-3)GalNAc(a1-3)[Fuc(a1-2)]Gal(b1-4)Glc
# Method in brief: as §1
# [2] = target: Fuc(a1-2)Gal(b1-3)GalNAc(a1-3)[Fuc(a1-2)]Gal(b1-4)GlcNAc
# Method in brief: as §1
# [3] = target: Fuc(a1-2)Gal(b1-3)GalNAc(b1-3)Gal
# Method in brief: as §1
# [4] = target: Fuc(a1-2)Gal(b1-3)GalNAc(b1-3)Gal(a1-4)Gal(b1-4)Glc
# Method in brief: as §1
# [5] = target: Fuc(a1-2)Gal(b1-3)GalNAc(b1-4)[Neu5Ac(a2-3)]Gal(b1-4)Glc
# Method in brief: as §1
# Fuc(a1-2)Gal(b1-3)GlcNAc = target: Fuc(a1-2)Gal(b1-3)GlcNAc
# Method in brief: as §1
# [6] = target: Fuc(a1-2)Gal(b1-3)GlcNAc(b1-2)Man(a1-3)[Fuc(a1-2)Gal(b1-3)GlcNAc(b1-2)Man(a1-6)]Man(b1-4)GlcNAc(b1-4)GlcNAc
# Method in brief: as §1
# [7] = target: Fuc(a1-2)Gal(b1-3)GlcNAc(b1-3)Gal(b1-4)Glc
# Method in brief: as §1
# [8] = target: Fuc(a1-2)Gal(b1-3)GlcNAc(b1-3)[Fuc(a1-3)[Gal(b1-4)]GlcNAc(b1-6)]Gal(b1-4)Glc
# Method in brief: as §1
# [9] = target: Fuc(a1-2)Gal(b1-3)[Fuc(a1-4)]GlcNAc
# Method in brief: as §1
# [10] = target: Fuc(a1-2)Gal(b1-3)[Fuc(a1-4)]GlcNAc(b1-2)Man(a1-3)[Fuc(a1-2)Gal(b1-3)[Fuc(a1-4)]GlcNAc(b1-2)Man(a1-6)]Man(b1-4)GlcNAc(b1-4)GlcNAc
# Method in brief: as §1
# [11] = target: Fuc(a1-2)Gal(b1-3)[Fuc(a1-4)]GlcNAc(b1-3)[Fuc(a1-3)[Gal(b1-4)]GlcNAc(b1-6)]Gal(b1-4)Glc
# Method in brief: as §1
# [12] = target: Fuc(a1-2)Gal(b1-3)[Fuc(a1-4)]GlcNAc(b1-3)[Gal(b1-4)GlcNAc(b1-6)]Gal(b1-4)Glc
# Method in brief: as §1
# Fuc(a1-2)Gal(b1-4)Glc = target: Fuc(a1-2)Gal(b1-4)Glc
# Method in brief: as §1
# Fuc(a1-2)Gal(b1-4)Glc6S = target: Fuc(a1-2)Gal(b1-4)Glc6S
# Method in brief: as §1
# Fuc(a1-2)Gal(b1-4)GlcNAc = target: Fuc(a1-2)Gal(b1-4)GlcNAc
# Method in brief: as §1
# [13] = target: Fuc(a1-2)Gal(b1-4)GlcNAc(b1-2)Man(a1-3)[Fuc(a1-2)Gal(b1-4)GlcNAc(b1-2)Man(a1-6)]Man(b1-4)GlcNAc(b1-4)GlcNAc
# Method in brief: as §1
# [14] = target: Fuc(a1-2)Gal(b1-4)GlcNAc(b1-3)Gal(b1-4)GlcNAc
# Method in brief: as §1
# [15] = target: Fuc(a1-2)Gal(b1-4)GlcNAc(b1-3)Gal(b1-4)GlcNAc(b1-3)Gal(b1-4)GlcNAc
# Method in brief: as §1
# [16] = target: Fuc(a1-2)Gal(b1-4)GlcNAc(b1-3)GalNAc
# Method in brief: as §1
# [17] = target: Fuc(a1-2)Gal(b1-4)GlcNAc6S
# Method in brief: as §1
# [18] = target: Fuc(a1-2)Gal(b1-4)[Fuc(a1-3)]GlcNAc
# Method in brief: as §1
# [19] = target: Fuc(a1-2)Gal(b1-4)[Fuc(a1-3)]GlcNAc(b1-2)Man(a1-3)[Fuc(a1-2)Gal(b1-4)[Fuc(a1-3)]GlcNAc(b1-2)Man(a1-6)]Man(b1-4)GlcNAc(b1-4)GlcNAc
# Method in brief: as §1
# [20] = target: Fuc(a1-2)Gal(b1-4)[Fuc(a1-3)]GlcNAc(b1-3)Gal(b1-4)[Fuc(a1-3)]GlcNAc
# Method in brief: as §1
# [21] = target: Fuc(a1-2)Gal(b1-4)[Fuc(a1-3)]GlcNAc(b1-3)Gal(b1-4)[Fuc(a1-3)]GlcNAc(b1-3)Gal(b1-4)[Fuc(a1-3)]GlcNAc
# Method in brief: as §1
# Fuc(a1-2)Gal6S(b1-4)Glc = target: Fuc(a1-2)Gal6S(b1-4)Glc
# Method in brief: as §1
# [22] = target: Fuc(a1-2)Gal6S(b1-4)Glc6S
# Method in brief: as §1
# [23] = target: Fuc(a1-2)Gal6S(b1-4)GlcNAc
# Method in brief: as §1
binder,measurement,setting,value
"Ecp6 (Cladosporium fulvum), B3VBK9 (protein) MQSMILFAAALMGAAVNGFVLPRTDDPDCETKATDCGSTSNIKYTVVKGDTLTSIAKKFKSGICNIVSVNKLANPNLIELGATLIIPENCSNPDNKSCVSTPAEPTETCVPGLPGSYTIVSGDTLTNISQDFNITLDSLIAANTQIENPDAIDVGQIITVPVCPSSQCEAVGTYNIVAGDLFVDLAATYHTTIGQIKALNNNVNPSKLKVGQQIILPQDCKNVTTAVA",glycan array binding signal (z-score),Fuc(a1-2)Gal,-0.081
same,glycan array binding signal (z-score),Fuc(a1-2)Gal(b1-3)GalNAc,-0.084
same,glycan array binding signal (z-score),[1],-0.099
same,glycan array binding signal (z-score),[2],-0.099
same,glycan array binding signal (z-score),[3],-0.046
same,glycan array binding signal (z-score),[4],-0.104
same,glycan array binding signal (z-score),[5],-0.082
same,glycan array binding signal (z-score),Fuc(a1-2)Gal(b1-3)GlcNAc,-0.087
same,glycan array binding signal (z-score),[6],-0.096
same,glycan array binding signal (z-score),[7],-0.104
same,glycan array binding signal (z-score),[8],-0.095
same,glycan array binding signal (z-score),[9],-0.071
same,glycan array binding signal (z-score),[10],-0.081
same,glycan array binding signal (z-score),[11],-0.096
same,glycan array binding signal (z-score),[12],-0.121
same,glycan array binding signal (z-score),Fuc(a1-2)Gal(b1-4)Glc,-0.09
same,glycan array binding signal (z-score),Fuc(a1-2)Gal(b1-4)Glc6S,-0.062
same,glycan array binding signal (z-score),Fuc(a1-2)Gal(b1-4)GlcNAc,-0.086
same,glycan array binding signal (z-score),[13],-0.1
same,glycan array binding signal (z-score),[14],-0.075
same,glycan array binding signal (z-score),[15],-0.082
same,glycan array binding signal (z-score),[16],-0.088
same,glycan array binding signal (z-score),[17],-0.087
same,glycan array binding signal (z-score),[18],-0.078
same,glycan array binding signal (z-score),[19],-0.085
same,glycan array binding signal (z-score),[20],-0.066
same,glycan array binding signal (z-score),[21],-0.055
same,glycan array binding signal (z-score),Fuc(a1-2)Gal6S(b1-4)Glc,-0.076
same,glycan array binding signal (z-score),[22],-0.086
same,glycan array binding signal (z-score),[23],-0.091
